Consider 51 molecules from article PMC6919601, “Identification of Plasmodium dipeptidyl aminopeptidase allosteric inhibitors by high throughput screening” (PLoS ONE, 2019).

The campaign covered roughly 110,000 compounds. About 230 (0.21%) showed an effect of 50% or more. This is one part of the list.
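Also: 30 min substrate incubation versus DMSO and 10 µM JCP410 controls.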

Chain of DPAP1 (Q8IIJ9 whole entry, looked up): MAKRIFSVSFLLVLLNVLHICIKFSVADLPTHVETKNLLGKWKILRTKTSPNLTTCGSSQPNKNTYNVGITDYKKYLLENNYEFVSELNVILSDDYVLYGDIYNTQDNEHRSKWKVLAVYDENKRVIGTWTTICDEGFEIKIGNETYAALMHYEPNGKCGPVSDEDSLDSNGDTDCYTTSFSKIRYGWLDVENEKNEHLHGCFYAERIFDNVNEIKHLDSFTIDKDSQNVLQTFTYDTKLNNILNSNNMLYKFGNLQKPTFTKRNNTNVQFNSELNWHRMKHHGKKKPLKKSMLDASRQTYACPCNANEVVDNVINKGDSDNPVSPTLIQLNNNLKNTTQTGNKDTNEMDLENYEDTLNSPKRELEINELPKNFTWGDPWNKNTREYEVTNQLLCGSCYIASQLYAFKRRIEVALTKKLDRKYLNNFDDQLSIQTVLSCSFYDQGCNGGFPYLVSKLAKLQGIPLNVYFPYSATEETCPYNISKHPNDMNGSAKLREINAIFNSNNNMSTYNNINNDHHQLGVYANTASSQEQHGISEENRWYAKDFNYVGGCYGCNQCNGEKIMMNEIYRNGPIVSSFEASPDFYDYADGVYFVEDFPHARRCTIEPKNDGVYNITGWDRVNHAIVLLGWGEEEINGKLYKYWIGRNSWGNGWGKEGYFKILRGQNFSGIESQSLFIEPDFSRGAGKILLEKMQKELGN

This test has as its target DPAP1 (Plasmodium falciparum, UniProt Q8IIJ9). The experiment in a line: primary screen, percent inhibition; read by cleavage of a fluorogenic dipeptide substrate; higher = more effect of the substance. Further details: species or system P. falciparum D10 trophozoite lysates; single well.
For `O=C(c1cc(S(=O)(=O)N2CCCC2)c(Cl)cc1Cl)N1CCCC1`, the “% Inhibition @ 10 uM” value came out at 4.11%.

As for `Cc1cccc(N2CCN(C(=O)c3cccnc3Cl)CC2)c1C`, the “% Inhibition @ 10 uM” value is -5.85%.

In the case of `N#Cc1cc2c(=O)n3ccccc3nc2n(Cc2ccc(F)cc2)c1=O`, the “% Inhibition @ 10 uM” value is on record as -2.28%.

In the case of `CC1=C(C(=O)Nc2cccnc2)C(c2cccnc2)n2nc(SCc3ccccc3Cl)nc2N1` (stereo not drawn), the “% Inhibition @ 10 uM” value is listed as -1.43%.

Consider `COc1ccc(C)cc1S(=O)(=O)NCCN1CCOCC1`, for which the “% Inhibition @ 10 uM” value is -1.92%.

With `Cc1c(C)n(CC(O)CNC2CCCCC2C)c2ccccc12` (stereo not drawn), the “% Inhibition @ 10 uM” value is recorded as -5%.

For the molecule `COc1ccc(Br)cc1Cn1nnc(C(=O)NCc2ccccc2)c1N`, the “% Inhibition @ 10 uM” value is listed as 1.26%.

As to `CCOC(=O)N1CCC(/N=c2\c(O)c(O)\c2=N/CCc2ccc(S(N)(=O)=O)cc2)CC1`, the “% Inhibition @ 10 uM” value was 5.09%.

Turning to `COC(=O)/C(=C/c1ccco1)NC(=O)c1ccccc1OC`, the “% Inhibition @ 10 uM” value is given as -7.45%.

With `Cc1ccc(C(=O)N2CCN(c3ccc(F)cc3)CC2)cc1[N+](=O)[O-]`, the “% Inhibition @ 10 uM” value came to 0.273%.

With `O=C(CSCc1ccc(F)cc1)N1CCOCC1`, the “% Inhibition @ 10 uM” value is listed as -1.21%.

For the molecule `COc1ccc(-c2nc3ccccc3nc2O)cc1`, the “% Inhibition @ 10 uM” value worked out at 0.962%.

Turning to `Cc1c(C(=O)N2CCCC(C)C2)sc2ncnc(N3CCCCC3C)c12` (stereo not drawn), the “% Inhibition @ 10 uM” value was -0.458%.

Regarding `C=CCNc1nc(Cl)nc(NC(C)(C)C)n1`, the “% Inhibition @ 10 uM” value was -4.66%.

With `CN1C(=O)C(=CNc2cc(Cl)ccc2C(=O)c2ccccc2)C(=O)N(C)C1=O`, the “% Inhibition @ 10 uM” value is 7.18%.

Consider `Cc1cc(S(=O)(=O)NCCCSC2CCCCC2)ccc1F`, for which the “% Inhibition @ 10 uM” value is 5.23%.

For `CN(CCO)S(=O)(=O)c1ccc(N)cc1`, the “% Inhibition @ 10 uM” value was -0.833%.

On to `O=S(=O)(Nc1cc(Cl)ccc1Cl)c1ccccc1`, for which the “% Inhibition @ 10 uM” value turned out to be 6.18%.

In the case of `CC1=C(C(=O)OCCOc2ccccc2)C(c2cccc(F)c2F)CC(=O)N1` (stereo not drawn), the “% Inhibition @ 10 uM” value was -1.62%.

For the molecule `O=C(NCc1ccccc1)c1ccc(COc2ccccc2Cl)o1`, the “% Inhibition @ 10 uM” value was -14.6%.

For `N#Cc1c(NC(=O)CO/N=C/c2ccccc2)oc(-c2ccccc2)c1-c1ccccc1`, the “% Inhibition @ 10 uM” value is -0.142%.

In the case of `COc1ccc(CNC(=O)c2nc(S(=O)(=O)Cc3ccc(F)cc3)ncc2Cl)cc1`, the “% Inhibition @ 10 uM” value was -4.54%.

With `NC(=O)c1c(NC(=O)c2cccnc2Cl)sc2c1CCC2`, the “% Inhibition @ 10 uM” value is given as 1.34%.

On to `CN(Cc1ccccc1)C(=O)Cn1ncc2c1-c1ccccc1OC2`, for which the “% Inhibition @ 10 uM” value is given as 1.72%.

Take `CC(C)(C)c1ccc(C(=O)Nc2ccc3[nH]c(O)nc3c2)cc1`: the “% Inhibition @ 10 uM” value was 19.3%.

On to `COC(=O)C1=C(C)N(Cc2ccccc2)C(=O)/C1=C\c1ccc(C)cc1`, for which the “% Inhibition @ 10 uM” value is -3.4%.

For the molecule `Cc1ccccc1NC(=O)C(C)N1C(=O)c2ccccc2C1=O` (stereo not drawn), the “% Inhibition @ 10 uM” value is listed as -7.89%.

Turning to `O=C(NCc1ccco1)c1cccc(N2C(=O)C3C4C=CC(C5CC45)C3C2=O)c1` (stereo not drawn), the “% Inhibition @ 10 uM” value is on record as -0.994%.

`O=C(/C=C/c1ccc2c(c1)OCO2)NCCc1nc2ccccc2[nH]1`: the “% Inhibition @ 10 uM” value was 0.736%.

`CN1CCN(c2ccc3nnc(CCC(=O)NCCC4=CCCCC4)n3n2)CC1`: the “% Inhibition @ 10 uM” value is on record as -7.42%.

Turning to `COc1ccc(-c2cc(C)no2)cc1S(=O)(=O)N1CCN(Cc2ccc3c(c2)OCO3)CC1`, the “% Inhibition @ 10 uM” value was -2.31%.

`Cc1cc(SC(C)C(=O)O)nc2ccccc12` (stereo not drawn): the “% Inhibition @ 10 uM” value is listed as -0.169%.

For the molecule `Clc1cccc(Nc2nc3nonc3nc2N2CCCCC2)c1`, the “% Inhibition @ 10 uM” value is recorded as -1.28%.

On to `CCOC(=O)N1CCN(CC2=CC[C@H]3C[C@@H]2C3(C)C)CC1`, for which the “% Inhibition @ 10 uM” value is given as -0.292%.

`O=C(NCC1(c2ccccc2)CCCC1)C(c1ccccc1)c1ccccc1`: the “% Inhibition @ 10 uM” value is given as -1.99%.

Turning to `OC1=C2C(=Nc3nc(SCc4ccccc4)nc(O)c3C2c2cccs2)CCC1` (stereo not drawn), the “% Inhibition @ 10 uM” value is recorded as -2.04%.

As to `COc1ccc(-c2nc(CNS(=O)(=O)N(C)C)cs2)cc1`, the “% Inhibition @ 10 uM” value is recorded as -2.67%.

For `O=C(c1nc2ccccc2s1)N1CCN(c2ccccn2)CC1`, the “% Inhibition @ 10 uM” value is reported as 3.49%.

`CC(C)Oc1ccc(CNc2ncnc3c2sc2nc4c(cc23)COC(C)(C)C4)cc1`: the “% Inhibition @ 10 uM” value is recorded as 7.89%.

Consider `COc1ccc(C(=O)NO/C(O)=C/C(C)=N/Cc2ccccc2)cc1`, for which the “% Inhibition @ 10 uM” value turned out to be 8.61%.

As to `Cc1ccc2[nH]c(NCCO)nc2c1`, the “% Inhibition @ 10 uM” value was -1.56%.

Take `CCn1c2ccccc2c2cc(CN3CC=C(c4ccc(F)cc4)CC3)ccc21`: the “% Inhibition @ 10 uM” value is -5.31%.

For the molecule `Cc1ccccc1NC(=O)c1cc(SCCS(=O)(=O)c2ccc(Cl)cc2)ccc1Cl`, the “% Inhibition @ 10 uM” value is 6.03%.

Consider `Cn1c(NC(=O)COc2ccc(Cl)cc2)cc(=O)n(C)c1=O`, for which the “% Inhibition @ 10 uM” value is reported as 2.32%.

Consider `CC(=O)c1ccc(NC(=O)c2cccc(S(=O)(=O)Nc3ccc(C(C)=O)cc3)c2)cc1`, for which the “% Inhibition @ 10 uM” value is on record as 6.31%.

For `CCOc1ccc(/C=C/c2nc(C#N)c(NCCN(C)C)o2)cc1`, the “% Inhibition @ 10 uM” value came to 0.895%.

Consider `CC(C)C(=O)N(Cc1ccco1)C1CCS(=O)(=O)C1` (stereo not drawn), for which the “% Inhibition @ 10 uM” value worked out at 2.19%.

Consider `CCn1c(=O)c(C(=O)NCCN2CCCCC2)c(O)c2ccccc21`, for which the “% Inhibition @ 10 uM” value turned out to be 0.878%.

For `CCN(/C=N/c1sc2c(c1C#N)CCCCC2)CC`, the “% Inhibition @ 10 uM” value is recorded as 5%.

With `Cc1nc2c(c(C)c1CCC(=O)NCCN1CCc3ccccc3C1)c(=O)n(C)c(=O)n2C`, the “% Inhibition @ 10 uM” value is reported as 2.12%.

Turning to `Cc1ccc(N2NC(=O)/C(=C/c3ccc(-c4cccc([N+](=O)[O-])c4)o3)C2=O)cc1C`, the “% Inhibition @ 10 uM” value is -0.582%.
